The record followed here is publication PMC7819943, “Rice protein-binding microarrays: a tool to detect cis-acting elements near promoter regions in rice”.

The other results are listed elsewhere or left out.

For the assay, the target named is T1, OsWOX13 (Oryza sativa, UniProt Q5QMM3 1-267).
T1 sequence: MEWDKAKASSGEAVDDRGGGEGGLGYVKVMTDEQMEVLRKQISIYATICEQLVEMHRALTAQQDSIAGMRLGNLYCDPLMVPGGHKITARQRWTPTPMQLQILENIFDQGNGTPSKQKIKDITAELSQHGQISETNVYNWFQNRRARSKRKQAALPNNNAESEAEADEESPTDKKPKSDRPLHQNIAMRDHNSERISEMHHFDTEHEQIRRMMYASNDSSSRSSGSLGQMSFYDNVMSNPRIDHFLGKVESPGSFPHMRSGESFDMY
The assay is described as follows: protein-binding microarray (RPBM); PBS, 2% BSA, 51.3 ng/ul salmon testes DNA, 50 uM zinc acetate, 200 nM TF, 25 C, 1 h; high values mean tight binding. The following applies: protein: recombinant; tags: N-terminal polyhistidine and DsRed monomer fusion (pET32a); label: CyDye5-dUTP incorporated in the synthesized complementary strand; 3' TTTTT single-stranded linker to array surface; dsDNA, one strand shown. The essentials: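 An Axon 4000B scanner gave the binding signal as per-feature fluorescence intensity in arbitrary units. This followed washing of a custom Agilent array that had been incubated for 1 h at 25 °C with 200 nM protein in PBS, 2% BSA, salmon testes DNA and 50 µM zinc acetate. The proteins were transcription factors fused at the N-terminus to polyhistidine and DsRed, expressed in E. coli BL21-CodonPlus and purified on Ni–NTA.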
For the sequence “CATAATTGGTAAATTTGCGGGTTCAATTCCTGCTGGATGCCGGAGTCACCTAGTGCAG”, the binding signal was 59500 fluorescence intensity (a.u.). In the case of “CCCTGATGAGGCCAGTTAGCACGGAGAGCAGTGCTAGCTACGGAGTCACCTAGTGCAG”, the binding signal is 7920 fluorescence intensity (a.u.). Take “ATATATATATATATATATATATATATATAGAGCGCGCACTCGGAGTCACCTAGTGCAG”: the binding signal is 44000 fluorescence intensity (a.u.). With “ATCATCATCGTCATCACCGCGCATCCCCATAGTCCTCAACCGGAGTCACCTAGTGCAG” the figure was 3310 fluorescence intensity (a.u.); with “GCCATAATTAGCTCCCTCTCATGCCCTCTCCAACCTCCACCGGAGTCACCTAGTGCAG”, 29600 fluorescence intensity (a.u.); with “GCAGCAAATTGATTGAAACAACCCTTAACCGGTGAGTGCTCGGAGTCACCTAGTGCAG”, 49800 fluorescence intensity (a.u.). As for “ATGCCTCTAATTTCATGTTTAATAATCTTGTAATACATATCGGAGTCACCTAGTGCAG”, the binding signal is 4140 fluorescence intensity (a.u.). In the case of “AATGATTTTCACATAAACTAGTTCAAGTTCTGTGAAGTTACGGAGTCACCTAGTGCAG” it was 16600 fluorescence intensity (a.u.); in that of “TTGTTAGATTAGGGTTTCGAGTCTTTCGACGTCCTGCTTGCGGAGTCACCTAGTGCAG”, 4560 fluorescence intensity (a.u.). In the case of “AAAATCATTGACAAAGCTTAATGTAAATCGAAACAATCGTCGGAGTCACCTAGTGCAG” it was 15700 fluorescence intensity (a.u.). In the case of “TTGGAATTAGATGATGAATGAATGAATGAATGAATGCTCACGGAGTCACCTAGTGCAG” it was 22300 fluorescence intensity (a.u.); in that of “GGATGATTCAATCTTTGCTATTTGCCTTATCCACCTTAAACGGAGTCACCTAGTGCAG”, 3700 fluorescence intensity (a.u.); in that of “TATAAATAAATTAAGTGGGCTAGCATGTCCACCGAAACAGCGGAGTCACCTAGTGCAG”, 12600 fluorescence intensity (a.u.). With “AATAACTTTGCTTGAAATTGAAGTTAAGAGCACTTGACAGCGGAGTCACCTAGTGCAG”, the binding signal was 3640 fluorescence intensity (a.u.). As for “TTGATAATACATGCTGATTGTGAAATCAATAAGTTTGATGCGGAGTCACCTAGTGCAG”, the binding signal is 14400 fluorescence intensity (a.u.). With “CACCTGACTGATTGGATTGGTATCGATCCAAGCCTATCAGCGGAGTCACCTAGTGCAG” the figure was 57100 fluorescence intensity (a.u.); with “CCTTAACTAAACTATTTTCGGATTCAAAATTCCTCAAAACCGGAGTCACCTAGTGCAG”, 4310 fluorescence intensity (a.u.); with “AAATAAACATATTTTAATTGTTATTTAGAGAAAAGTGCACCGGAGTCACCTAGTGCAG”, 18200 fluorescence intensity (a.u.). With “TGCTTGTGACTGACATCAATGAATCTGGAGTCACGATCGACGGAGTCACCTAGTGCAG” the figure was 9050 fluorescence intensity (a.u.); with “AATTTAATCATCATCCATCGGAATATTCTAATCCCCGTCCCGGAGTCACCTAGTGCAG”, 5920 fluorescence intensity (a.u.). In the case of “CCAACCATTGCAAATTTGCAATCAAATTTGGAGTATCAAACGGAGTCACCTAGTGCAG” it was 15700 fluorescence intensity (a.u.).

As to “TGACAAGCCTAATAGATATATAATTGATCCTCGTTGTTAACGGAGTCACCTAGTGCAG”, the binding signal is 9220 fluorescence intensity (a.u.). With “TAATTAATTAATTAAGGCATATATGCGCGAGGTACAAACGCGGAGTCACCTAGTGCAG” the figure was 39600 fluorescence intensity (a.u.). In the case of “GTTATCTTAAAAGTAAAATAAATTGACAAAGCAGCAGATACGGAGTCACCTAGTGCAG” it was 7620 fluorescence intensity (a.u.); in that of “TGCTAATGACTGATTAATTAGGCTTAATAAATTCGTCTTGCGGAGTCACCTAGTGCAG”, 35300 fluorescence intensity (a.u.). With “GCACACGTAATTGAACTATATTAGACAGTACTAGCTCCAGCGGAGTCACCTAGTGCAG” the figure was 18300 fluorescence intensity (a.u.); with “AGCTAATTAAGCTCCCTAGTCGTAGCAAGCAAGGATGTAACGGAGTCACCTAGTGCAG”, 10800 fluorescence intensity (a.u.); with “AGTACAAATAAATTGGTCAGTTTTATTTCATGATCCCATACGGAGTCACCTAGTGCAG”, 12600 fluorescence intensity (a.u.). Take “CCGCTAATGGACCTATTAAGACCGGTTTTATATAGTTAAACGGAGTCACCTAGTGCAG”: the binding signal is 8430 fluorescence intensity (a.u.).

For the sequence “TATTTGACAGAATGCAGGTGGTGGAAAGCAATATGCATTCCGGAGTCACCTAGTGCAG”, the binding signal was 9470 fluorescence intensity (a.u.). For “CTAGTTTACATTTAATACTTCTAATTAGTACTCCCTCCGTCGGAGTCACCTAGTGCAG”, the binding signal was 3290 fluorescence intensity (a.u.). Turning to “CCTGACTGTCGACACCGACATGGATGGCCGTGTGTTGCCACGGAGTCACCTAGTGCAG”, the binding signal is 5690 fluorescence intensity (a.u.). In the case of “AAAATTGAATGAGACGAGTGGTCAAACGTTGCAAGCAAAACGGAGTCACCTAGTGCAG” it was 21100 fluorescence intensity (a.u.). In the case of “GCACAAATTGGCTGGACCCATGGGATTAGCATGCAGCGTCCGGAGTCACCTAGTGCAG” it was 11800 fluorescence intensity (a.u.). In the case of “TCACTTTTAAAATATTTGTCAATCAAATGTGATGACTACACGGAGTCACCTAGTGCAG”, the binding signal is 16500 fluorescence intensity (a.u.). Consider “TAAAATTCAGTTAATTTACTTAGTGCACTGACCAAACATCCGGAGTCACCTAGTGCAG”, for which the binding signal is 16200 fluorescence intensity (a.u.). On to “AGTGATTGATCAGTTGAATTATTGAGTTCTCCAATGAATTCGGAGTCACCTAGTGCAG”, for which the binding signal was 34700 fluorescence intensity (a.u.). With “ATGTAAATTACTTTATTATTATATTAATATATATTTATCGCGGAGTCACCTAGTGCAG” the figure was 28000 fluorescence intensity (a.u.); with “ATTGTACGTTGATTTATATGCCTTACCTTACGATAGAACGCGGAGTCACCTAGTGCAG”, 9610 fluorescence intensity (a.u.). In the case of “CATTAGTTTGTGCCTGATAGAATTAAAATTTACATTCCAACGGAGTCACCTAGTGCAG” it was 3400 fluorescence intensity (a.u.); in that of “AATATTAAATTAGTTTCATTAAATCAATAATTAAATTTATCGGAGTCACCTAGTGCAG”, 12700 fluorescence intensity (a.u.). In the case of “GATAGATAGATTATCTGACAGACTTCCTCAACGAACGTAGCGGAGTCACCTAGTGCAG” it was 30300 fluorescence intensity (a.u.).
